The values below come from publication PMC4336329 (PLoS ONE, 2015).

In all, about 310,000 compounds went through this assay and about 2,200 (0.71%) showed an effect of 50% or more. Effects have a minus sign here. The list shows a part of the results.

Chain of human ether-à-go-go-related gene (hERG) potassium channel (Q12809 whole entry, looked up): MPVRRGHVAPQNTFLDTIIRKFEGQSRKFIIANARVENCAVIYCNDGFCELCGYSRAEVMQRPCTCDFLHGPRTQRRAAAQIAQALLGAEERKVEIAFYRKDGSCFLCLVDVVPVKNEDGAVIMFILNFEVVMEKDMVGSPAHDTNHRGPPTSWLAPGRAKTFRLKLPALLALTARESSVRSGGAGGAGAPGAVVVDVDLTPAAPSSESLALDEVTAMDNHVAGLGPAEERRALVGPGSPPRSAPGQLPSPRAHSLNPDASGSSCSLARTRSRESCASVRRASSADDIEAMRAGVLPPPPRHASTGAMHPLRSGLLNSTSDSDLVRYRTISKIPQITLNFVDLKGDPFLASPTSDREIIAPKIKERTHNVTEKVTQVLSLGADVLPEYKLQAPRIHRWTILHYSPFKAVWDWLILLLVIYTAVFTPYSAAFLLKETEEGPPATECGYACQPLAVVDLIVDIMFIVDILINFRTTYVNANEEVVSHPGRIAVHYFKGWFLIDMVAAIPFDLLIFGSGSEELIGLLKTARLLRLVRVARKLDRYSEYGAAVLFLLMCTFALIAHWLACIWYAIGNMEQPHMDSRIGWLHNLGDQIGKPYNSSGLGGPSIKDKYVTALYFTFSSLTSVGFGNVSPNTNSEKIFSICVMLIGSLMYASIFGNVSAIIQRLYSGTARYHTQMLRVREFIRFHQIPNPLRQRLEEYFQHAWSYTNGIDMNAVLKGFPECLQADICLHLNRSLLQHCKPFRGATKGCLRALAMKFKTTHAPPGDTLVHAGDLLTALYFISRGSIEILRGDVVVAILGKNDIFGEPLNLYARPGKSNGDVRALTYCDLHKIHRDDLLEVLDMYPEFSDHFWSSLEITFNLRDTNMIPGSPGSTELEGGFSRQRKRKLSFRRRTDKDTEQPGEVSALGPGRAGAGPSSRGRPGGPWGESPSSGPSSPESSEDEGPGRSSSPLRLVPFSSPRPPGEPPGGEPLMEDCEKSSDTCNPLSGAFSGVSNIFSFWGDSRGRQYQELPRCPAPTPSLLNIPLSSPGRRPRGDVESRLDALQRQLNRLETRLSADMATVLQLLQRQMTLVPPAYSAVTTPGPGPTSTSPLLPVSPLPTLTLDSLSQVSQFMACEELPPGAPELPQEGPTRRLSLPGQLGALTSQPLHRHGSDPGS

The assay addresses human ether-à-go-go-related gene (hERG) potassium channel (human, UniProt Q12809). The assay is described as follows: primary screen, population patch clamp on CHO cells stably expressing hERG.
For `COc1ccc(Cn2c(=O)[nH]c3cc(C(=O)NC4CCN(Cc5ccccc5)CC4)ccc32)cc1`, the “hERG current change (%, negative = inhibition) at 1uM” value worked out at 13.4%.

As for `CCOc1ccc(NC(=S)N2CCC(NC(=O)c3ccccc3)CC2)cc1`, the “hERG current change (%, negative = inhibition) at 1uM” value is recorded as -3.48%. For `CC1(C)CC(NC(=O)c2ccccc2F)CC(C)(C)N1`, the “hERG current change (%, negative = inhibition) at 1uM” value was found to be 6.14%. The same measure for `CCN1C(=NCCOC)N[C@@H](c2cccs2)C(C(=O)OC)=C1C`: -0.789%; for `CCOC(=O)/C=C1/N(C)c2ccccc2C1(C)C`: 3.52%; for `O=[N+]([O-])c1cc(/C=N/O)ccc1N1CCCC1`: 12.9%. The same measure for `O=C(Nc1nc(-c2ccco2)c(-c2ccco2)s1)C1CCC1`: 2.76%; for `COc1cc(C(=S)N2CCOCC2)cc(OC)c1OS(=O)(=O)c1ccc(Cl)cc1`: 13.4%. The same measure for `COc1ccc(N2C(=O)c3ccccc3NC23CCCC3)cc1`: 12.7%; for `CC1=C(C(N)=O)C(c2ccc(F)cc2)n2nc(CCCO)nc2N1` (stereo not shown): 17.8%.

In the case of `COC(=O)c1ccccc1NC(=S)N(Cc1ccc2c(c1)OCO2)Cc1cc2ccc(C)cc2[nH]c1=O`, the “hERG current change (%, negative = inhibition) at 1uM” value amounted to 6.91%. `O=C(Oc1cc(-c2ccccc2)no1)c1cccc(C(F)(F)F)c1`: the “hERG current change (%, negative = inhibition) at 1uM” value came to 15%.

`O=C1c2ccccc2-c2ncnc3c(N4CCOCC4)cc(N4CCOCC4)c1c23`: the “hERG current change (%, negative = inhibition) at 1uM” value is reported as -13.3%.

With `Cc1cccn2c(=O)c3cc(C(=O)N4COCC4(C)C)sc3nc12`, the “hERG current change (%, negative = inhibition) at 1uM” value is reported as -0.626%.

For the compound `CN(CC(=O)Nc1ccc(F)cc1)C(=O)c1cccc(S(=O)(=O)N2CCN(c3ccccc3)CC2)c1`, the “hERG current change (%, negative = inhibition) at 1uM” value is 6.57%.

Turning to `COc1ccc(C(=O)NC2CCSC2=O)cc1` (stereo not shown), the “hERG current change (%, negative = inhibition) at 1uM” value stood at 8.09%. Turning to `Cc1cc(F)ccc1S(=O)(=O)Nc1ccccc1C(=O)N1CCCC1`, the “hERG current change (%, negative = inhibition) at 1uM” value was determined as 7.17%. Next, `Cc1ccc(Nc2nnc(SCC(=O)Nc3cc(C(=O)O)ccc3C)s2)c(C)c1`: 10.4%.

For the compound `COc1ncnc(-c2ccccc2)c1-c1ccccc1`, the “hERG current change (%, negative = inhibition) at 1uM” value was 15.9%. The same measure for `O=C1C2C3C=CC(C4CC34)C2C(=O)N1/N=C/c1c[nH]c2ccccc12` (stereo not shown): 12.6%; for `O=C(CN1CC=C(c2ccccc2)CC1)Nc1c(Cl)cccc1Cl`: 4.3%. Next, `O=C(NCC1CCCO1)C(=O)N/N=C/c1cccc(Cl)c1` (stereo not shown): 17.1%. Take `N#Cc1ccc(Oc2cccc3cccnc23)c([N+](=O)[O-])c1`: the “hERG current change (%, negative = inhibition) at 1uM” value was 3.42%. Next, `C=CCN1C(=O)C(Cc2ccc(Br)cc2)S/C1=N\N=C\c1ccco1` (stereo not shown): 4.06%; `Cc1ccccc1-c1nc(S(=O)(=O)c2ccc(Br)cc2)c(NCc2cccnc2)o1`: 2.97%. Next, `Cc1ccc(OCC(=O)NCCN2CCN(C(=O)COc3ccc(C)cc3)CC2)cc1`: -21.2%; `O=[N+]([O-])c1ccc(F)c(N=Cc2ccc(Br)s2)c1`: 7.42%. Next, `Cc1cc(C(=O)N2CCC(CO)(Cc3cccc(C(F)(F)F)c3)CC2)n[nH]1`: 1.67%. As to `CCN1CCN(CCCN(Cc2ccco2)C(=S)Nc2ccccc2Cl)CC1`, the “hERG current change (%, negative = inhibition) at 1uM” value is given as -0.264%. Next, `CC(=O)OC[C@H]1O[C@@H](n2ncc(=O)[nH]c2=O)[C@H](OC(C)=O)[C@@H]1OC(C)=O`: 19.3%; `CN(CC(=O)Nc1ccccc1Cl)C(=O)CN1C(=O)NC(c2ccccc2)(c2ccccc2)C1=O`: -45.8%. The same measure for `CCN(CC)CCNC(=O)c1ccccc1N`: 0.537%. As for `O=C(NCc1ccncc1)c1cc(F)c(F)cc1Cl`, the “hERG current change (%, negative = inhibition) at 1uM” value turned out to be 15%. Next, `O=C(CSc1nc2c(c(=O)n1-c1ccc(Br)cc1)SCC2)NCc1ccco1`: 6.54%; `COc1ccc(C)cc1NC(=O)C(Sc1nnc(-c2cccs2)o1)c1ccccc1` (stereo not shown): 0.023%; `O=c1ccc2cc3c(-c4ccccc4)coc3cc2o1`: 13.6%. Consider `CC/C(=N\N1CCCCCC1)c1c(O)n(-c2ccc(C)cc2)c(=O)[nH]c1=O`, for which the “hERG current change (%, negative = inhibition) at 1uM” value came out at 11.4%.

Take `COc1cc(C2C(C#N)=C(N)OC3=C2C(=O)CCC3)cc2c1OCO2` (stereo not shown): the “hERG current change (%, negative = inhibition) at 1uM” value is 9.06%. The same measure for `O=[N+]([O-])c1cc(/C=N\O)ccc1Oc1ccc(F)cc1`: -46.3%; for `COc1ccc(-c2csc(NC(=O)C3CSC4(C)CCC(=O)N34)n2)c(OC)c1` (stereo not shown): 12.9%; for `Cc1cccc(-n2nc3c(c2NC(=O)c2ccc4c(c2)OCO4)CS(=O)(=O)C3)c1C`: 21.2%.

In the case of `O=C(COc1ccc(NS(=O)(=O)c2ccc(F)cc2)cc1)N1CCOCC1`, the “hERG current change (%, negative = inhibition) at 1uM” value worked out at 8.73%. The same measure for `Cc1cc(C)n(CC(C)C(=O)O)n1` (stereo not shown): 12.1%; for `Cc1nc2nc(CCNS(=O)(=O)c3ccc(Cl)cc3)cn2nc1C`: 11%. The same measure for `CCCCc1cc(=O)oc2c(C)c(OCc3nn[nH]n3)ccc12`: 7.04%; for `Cc1ccc(S(=O)(=O)Nc2ccc3c(c2)OCCO3)cc1C`: 15%; for `CN(CC(=O)NNC(=O)CNC(=O)c1ccccc1F)S(=O)(=O)c1ccc(Cl)cc1`: 6.42%. The same measure for `Cc1cc(=O)n2nc(N3CCCC(C(=O)NCc4ccccc4Cl)C3)sc2n1` (stereo not shown): 23.5%; for `Cc1ccc(N2C(=O)CC(Sc3nc(C)cc(C)n3)C2=O)cc1` (stereo not shown): 11%.

Regarding `CCOc1cc(Cl)c(CNCCCN2CCOCC2)cc1OC`, the “hERG current change (%, negative = inhibition) at 1uM” value worked out at 16.4%. The same measure for `COc1ccc(S(=O)(=O)Nc2ccccn2)cc1OC`: 11.7%; for `O=C(CNC1CCCCC1)Nc1ccc(Cl)cc1`: 5.9%; for `COc1ccc(-n2c(Cc3cccn3C)nnc2SCC(=O)NC2CCCCC2)cc1`: 6.77%.

As to `COC(=O)c1ccc(CNC(=O)C2CCC(=O)N(Cc3ccccn3)C2)cc1` (stereo not shown), the “hERG current change (%, negative = inhibition) at 1uM” value is reported as 15.2%. Next, `OCCC1CN(Cc2cnc(-c3ccc(Cl)cc3)nc2)CCN1C1CCCC1` (stereo not shown): -62%. The same measure for `Cc1cccc(NC(=O)C2CCN(c3ncnc4c3nc3n4CCCCC3)CC2)n1`: -13.2%; for `Cc1ccccc1C(=O)Nc1nc2n(n1)C(c1ccccc1)CC(=O)N2` (stereo not shown): -8.66%; for `Cc1ccc(C)c(N2CCN(CC3CCCCC3)CC2)c1`: 13.1%. The same measure for `CCOc1ccc(CCNC(=O)C2CC(=O)N(Cc3ccc(C)cc3)C2)cc1OCC` (stereo not shown): 18.5%; for `O=C(NCc1ccco1)C(=O)NCC(c1ccco1)N1CCOCC1` (stereo not shown): 13.9%. Turning to `O=C(Nc1ccc(N2CCOCC2)c(Cl)c1)c1cc(F)c(F)cc1Cl`, the “hERG current change (%, negative = inhibition) at 1uM” value stood at 5.44%. For `O=C(O)CC1(CC(=O)Nc2ccccc2N2CCOCC2)CCCC1`, the “hERG current change (%, negative = inhibition) at 1uM” value was 3.72%. The same measure for `CCOc1ccccc1NC(=O)CSc1nnc(-c2ccncc2)o1`: 8.26%; for `COc1ccc(C)cc1N(C(=O)Cn1nnc(-c2ccc(C)o2)n1)C(C(=O)NC1CCCC1)c1ccncc1` (stereo not shown): 11.8%; for `Cc1ccccc1CNC(=O)CN1C(=O)c2ccccc2S1(=O)=O`: 16.7%. The same measure for `N#Cc1ccc(C(=O)Nc2cc(-c3ccccc3)nn2-c2ccccc2)cc1`: 0.56%; for `CCN(CC(=O)Nc1ccc2c(c1)OCCO2)S(=O)(=O)c1cccs1`: 2.41%; for `CC(=O)NC1(C(F)(F)F)C(=O)N(Cc2ccccc2)C2=C1C(=O)CC(C)(C)C2` (stereo not shown): 22.7%. The same measure for `Cc1cc(C)n2nc(SCn3nnc4ccccc4c3=O)nc2n1`: 11.3%. As to `CCC(=O)Nc1nnc(SCC(=O)Nc2ccc3c(c2)OCO3)s1`, the “hERG current change (%, negative = inhibition) at 1uM” value is 10.9%.

In the case of `CC(C)OP(=O)(OC(C)C)C(Nc1ccccc1)c1cccnc1` (stereo not shown), the “hERG current change (%, negative = inhibition) at 1uM” value came to 12.6%. The same measure for `O=C(CN1CCCCCC1)Nc1ccc(Br)cn1`: 3.88%. Next, `CCOP(=O)(C#Cc1ccccc1)C(O)c1ccc(Br)cc1` (stereo not shown): 10.4%; `COc1ccc(/C=C2/N=C3CCCCCN3C2=O)cc1`: 10.5%; `CC1CCCCN1CCCNc1ccc(C(CC(N)=O)NC(=O)Cc2cccc3ccccc23)cc1[N+](=O)[O-]` (stereo not shown): -14.8%.

In the case of `O=C(/C=C/c1ccc(Br)o1)Nc1nccs1`, the “hERG current change (%, negative = inhibition) at 1uM” value is 2.7%. Next, `CC(=O)CCC(=O)N1CCC(n2nccc2NC(=O)c2ccccc2C)CC1`: 15.9%; `COc1ccc(C[C@H]2CN3C(=NC[C@@H]3Cc3ccccc3)N2CCNC(=O)CCC2CCCCC2)cc1`: -60.4%.

Turning to `COc1ccc([N+](=O)[O-])cc1N(CC(=O)NCc1ccco1)S(C)(=O)=O`, the “hERG current change (%, negative = inhibition) at 1uM” value came to 12.8%. The same measure for `Cc1cc(C)c(CNC(=O)c2cc(C3CC3)nc3c2cnn3C(C)C)c(=O)[nH]1`: 6.26%; for `CN(Cc1ccccc1)C(=O)COC(=O)c1ccc(=O)n(Cc2ccccc2)n1`: 3.74%; for `COc1ccc(C(CCNCc2ccc(OC(C)C)cc2)C(C)C)cc1` (stereo not shown): 2.88%. Next, `O=C(/C=C\c1ccco1)Nc1cc([N+](=O)[O-])ccc1F`: 2.32%; `COc1ccccc1OC1OC2COC(c3ccco3)OC2C(O)C1NC(C)=O` (stereo not shown): 2.9%.

In the case of `O=C(Nc1ccc(C2CCCCC2)cc1)C1CCCN(c2ncccn2)C1` (stereo not shown), the “hERG current change (%, negative = inhibition) at 1uM” value is recorded as -11.5%. The same measure for `C=C1CC2C=C(NC(C)=O)CC(C1)C2` (stereo not shown): 1.27%; for `Cc1cccc(NC(=O)[C@H](Cc2ccccc2)NC(=O)OCc2ccccc2)c1`: 13.7%; for `Cc1cccc(N(CC(=O)NCc2ccc(F)cc2)C(=O)c2ccco2)c1`: 10.6%.
